# Structures can show the parent of a compound that is named as a salt. Some of the results follow. Repeats are few or missing, and single values can be far off.
# Tested on: Escherichia coli W3110
# Assay: planktonic growth (OD600) relative to untreated control; higher = more growth
# Conditions: 10 µM; 20-24 h; 30 °C; TB
# 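Note: stationary (unshaken) cultures in 96-well plates, started at OD600 0.05 from mid-exponential cells, with compounds supplied from DMSO stocks.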
row,Structure (SMILES),planktonic growth [%]
1,COc1ccccc1OCC(O)CN1CCN(CC(=O)Nc2c(C)cccc2C)CC1 (stereo unspecified) [Ranolazine],92
2,COc1cc([C@@H]2c3cc4c(cc3[C@@H](O[C@@H]3O[C@@H]5CO[C@@H](C)O[C@H]5[C@H](O)[C@H]3O)[C@H]3COC(=O)[C@H]23)OCO4)cc(OC)c1O [Etoposide],98
3,CCCNCC(O)COc1ccccc1C(=O)CCc1ccccc1 (stereo unspecified) [Propafenone hydrochloride],86
4,NC(=O)C(c1ccccc1)(c1ccccc1)[C@@H]1CCN(CCc2ccc3c(c2)CCO3)C1 [Darifenacin hydrobromide],103
5,CN(C)c1nc(N(C)C)nc(N(C)C)n1 [Altretamine],99
6,Nc1nc2n[nH]nc2c(=O)[nH]1 [Azaguanine-8],114
7,CC(C)NCC(O)c1ccc2ccccc2c1 (stereo unspecified) [Pronethalol hydrochloride],94
8,CCOC(=O)C1=C(COCCN)NC(C)=C(C(=O)OC)C1c1ccccc1Cl (stereo unspecified) [Amlodipine],70
9,COc1ccc(/C=C/C(=O)Nc2ccccc2C(=O)O)cc1OC [Tranilast],103
10,Cc1c(N(C)C)c(=O)n(-c2ccccc2)n1C [Amidopyrine],104
11,Oc1c(Cl)cc(Cl)c(Cl)c1Cc1c(O)c(Cl)cc(Cl)c1Cl [Hexachlorophene],65
12,CC(=O)[C@H]1CC[C@H]2[C@@H]3C=CC4=CC(=O)CC[C@@]4(C)[C@@H]3CC[C@]12C [Dydrogesterone],107
13,Nc1nc(CC(=O)Nc2ccc(CCNC[C@H](O)c3ccccc3)cc2)cs1 [Mirabegron],110
14,NC[C@@H]1O[C@H](O[C@H]2[C@@H](O)[C@H](O[C@@H]3[C@@H](O)[C@H](N)C[C@H](N)[C@H]3O[C@H]3O[C@H](CO)[C@@H](O)[C@H](O)[C@H]3N)O[C@@H]2CO)[C@H](N)[C@@H](O)[C@@H]1O [Paromomycin sulfate],85
15,COc1ccccc1OCC(O)CO (stereo unspecified) [Guaifenesin],91
16,Cc1cccc(C)c1OCC(C)N (stereo unspecified) [Mexiletine hydrochloride],110
17,N#Cc1cc(NC(=O)C(=O)O)c(Cl)c(NC(=O)C(=O)O)c1 [Lodoxamide],105
18,CN1[C@@H]2CC[C@H]1C[C@@H](OC(=O)c1c[nH]c3ccccc13)C2 [Tropisetron hydrochloride],96
19,O=C(OCC(O)CO)c1ccccc1Nc1ccnc2cc(Cl)ccc12 (stereo unspecified) [Glafenine hydrochloride],87
20,CC(C(=O)O)c1ccc(-c2ccccc2)c(F)c1 (stereo unspecified) [Flurbiprofen],74
21,C[C@H]1O[C@@H](O[C@H]2[C@@H](O)C[C@H](O[C@H]3[C@@H](O)C[C@H](O[C@H]4CC[C@@]5(C)[C@H](CC[C@@H]6[C@@H]5C[C@@H](O)[C@]5(C)[C@@H](C7=CC(=O)OC7)CC[C@]65O)C4)O[C@@H]3C)O[C@@H]2C)C[C@H](O)[C@@H]1O [Digoxin],93

# Reference: the supplement of paper PMC7580552
